Results on two molecules are retold here after patent US20210301011A1, “COMPOSITION FOR PROPHYLAXIS OR TREATMENT OF IL-8 RELATED DISEASES” (CHUGAI SEIYAKU KABUSHIKI KAISHA, priority 2016, published 2021).

Data set [1] has as its system extracellular matrix (BD Matrigel Basement Membrane Matrix). Nature of the data set: Amount of antibody binding to the extracellular matrix by the ECL method. To be noted: pH 7.4. As to the method: Extracellular matrix (the BD Matrigel Basement Membrane Matrix/manufactured by BD) was diluted to 2 mg/mL using TBS (Takara, T903). The diluted extracellular matrix was dispensed into the MULTI-ARRAY 96 well Plate, High bind, Bare (manufactured by Meso Scale Discovery: MSD) at 5 μL per well, and immobilized overnight at 4° C. Then, blocking was performed using 20 mM ACES buffer (pH 7.4) containing 150 mM NaCl, 0.05% Tween20, 0.5% BSA, and 0.01% NaN3.
The antibodies to be evaluated were prepared as follows. The antibody samples to be added alone were prepared by diluting each antibody to 9 μg/mL using Buffer-1 shown below, and then further diluting them using Buffer-2 to a final concentration of 3 μg/mL.
Buffer-1: 20 mM ACES buffer containing 150 mM NaCl, 0.05% Tween20, and 0.01% NaN3, at pH 7.4 Buffer-2: 20 mM ACES buffer containing 150 mM NaCl, 0.05% Tween20, 0.1% BSA, and 0.01% NaN3, at pH 7.4 […]
Next, solutions of the antibody alone or the complex were added to the plate from which the blocking solution had been removed, and this was shaken at room temperature for one hour. […] The antibody for ECL detection was removed, a solution produced by 2-fold dilution of the MSD Read Buffer T (4×) (manufactured by MSD) using ultrapure water was added, and then the amount of luminescence was measured by SECTOR Imager 2400 (manufactured by MSD).

Data set [2] deals with T1, human IL-8 (Homo sapiens, UniProt P10145). In words: Mouse PK assay: human IL-8 elimination after simultaneous administration of human IL-8 and anti-human IL-8 antibody. The class given is in vivo, mice (C57BL/6J). The settings on record: C57BL/6J mice; antibody 2 mg/kg. As to the method:
After simultaneous administration of human IL-8 and anti-human IL-8 antibodies to mice (C57BL/6J, Charles river), pharmacokinetics of human IL-8 were evaluated. A mixed solution of human IL-8 and an anti-human IL-8 antibody (10 μg/mL and 200 μg/mL, respectively) was administered in a single dose at 10 mL/kg to the tail vein. […] Blood was collected five minutes, two hours, four hours, seven hours, one day, two days, three days, seven days, 14 days, 21 days, and 28 days after the administration. The collected blood was immediately centrifuged at 15,000 rpm and 4° C. for 15 minutes to obtain plasma. The separated plasma was stored in a freezer set at −20° C. or below until measurements were taken.
The human IL-8 concentration in mouse plasma was determined by an electrochemiluminescence method. […] Then, after one hour of reaction with a Biotin Mouse Anti-Human Igκ Light Chain (BD Pharmingen) at room temperature, and then one hour of reaction with SULFO-TAG Labeled Streptavidin (Meso Scale Discovery) at room temperature, Read Buffer T (×1) (Meso Scale Discovery) was dispensed, and measurements were performed immediately with SECTOR Imager 2400 (Meso Scale Discovery). The human IL-8 concentration was calculated based on the response in the calibration curve using the analytical software, SOFT Max PRO (Molecular Devices). […]

The target in data set [3] is T1, human IL-8. In words: IL-8-binding affinity (BIACORE T200, pH 7.4 40° C. / pH 5.8 37° C.). To be noted: Table 15, in 1/s. As to the method:
The following two running buffers were used, and measurements were carried out at the respective temperatures:
For the running buffer, either one of the above-mentioned solutions was used, and the respective buffers were also used to dilute human IL-8.
(In general: Surface plasmon resonance follows binding to a sensor surface in real time, without labels.)

T1 sequence (P10145 23-99 limits assumed): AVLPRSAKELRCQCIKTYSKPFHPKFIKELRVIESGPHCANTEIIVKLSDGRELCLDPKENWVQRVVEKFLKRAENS

B1: H1009/L395: pH-dependent anti-IL-8 antibody, H1009-IgG1m (SEQ ID NO:48) heavy chain, L395-kOMT light chain (antibody)
heavy: QVQLVESGGGLVQPGGSLRLSCAASGFTFSDYYLSWVRQAPGKGLEWVGLIRNKDNYHTPEYSASVKGRFTISRDDSKNSLYLTMSDLKTEDTAVYYCARENHRYDVELAYWGQGTLVTVSS[human IgG1 constant region skipped]
light: DIQMTQSPSSLSASVGDRVTITCRASEIIYSYLAWYQQKPGKAPKLLIYKAKTHADGVPSRFSGSGSGTDFTFTISSLQPEDIATYYCKHHFGFPRTFGQGTKVEIKRTVAAPSVFIFPPSDEQLKSGTASVVCLLNNFYPREAKVQWKVDNALQSGNSQESVTEQDSKDSTYSLSSTLTLSKADYEKHKVYACEVTHQGLSSPVTKSFNRGEC
For B1, the “binding to the extracellular matrix, complex with human IL-8 (+hIL8)” value in data set [1] (antibody 3 μg/mL with human IL-8 at ten times the molar concentration) is “bound to the extracellular matrix upon complex formation with human IL-8”. Besides, in data set [1] (antibody 3 μg/mL), the “binding to the extracellular matrix, antibody alone (−IL8)” value is “hardly showed any binding to the extracellular matrix”. In addition, the “increase of rate of human IL-8 elimination (CL) as compared to H998/L63” value in data set [2] is “approximately 30 fold”.

B2: H1040/L0442: anti-IL-8 antibody: heavy chain H1040 with light chain L442 (Tables 14-2, 14-3) (antibody)
heavy: QVQLVESGGGLVQPGGSLRLSCAASGFTFSEYYLSWVRQAPGKGLEWVGLIRNKDNHHHPEYSASVKGRFTISRDDSKNSLYLTMSDLKTEDTAVYYCARENHRYDVELAYWGQGTLVTVSS[human IgG1 constant region skipped]
light: DIQMTQSPSSLSASVGDRVTITCRASEIIYEYLAWYQQKPGKAPKLLIYKAKTHADGVPSRFSGSGSGTDFTFTISSLQPEDIATYYCKHHFGFPRTFGQGTKVEIKRTVAAPSVFIFPPSDEQLKSGTASVVCLLNNFYPREAKVQWKVDNALQSGNSQESVTEQDSKDSTYSLSSTLTLSKADYEKHKVYACEVTHQGLSSPVTKSFNRGEC
Consider B2, for which the “pH 5.8 koff” value in data set [3] is 2.1E+01.
